The campaign covered roughly 200,000 compounds. About 10 (0.005%) were called active. Inconclusive means that the source gave no clear call. Such entries were picked first, then a sample of the others. Calls follow the shape of the dose curve; as a rule, active = well fitted inhibition curve with a large enough effect; inconclusive = small, poorly fitted or top-dose-only effect, or effect the other way, or another doubt; inactive = no such curve, though single readings can be large or run the other way. No potency is given beside an inconclusive call; the fits are too rough.
molecular target: Lysosomal alpha-glucosidase (Homo sapiens) (UniProt P10253); test: qHTS Assay for Inhibitors of Human alpha-Glucosidase as a Potential Chaperone Treatment of Pompe Disease; conditions: purified human GAA, 4-MU-alpha-glucoside fluorescence; activity change, negative = inhibition: at 76.9 µM (top of the series) unless noted;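 as to activity change, negative = inhibition: plate controls were uninhibited enzyme wells for no effect and no-enzyme background for full effect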
How it was run: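 Human alpha-glucosidase, 4 nM, pre-mixed with test compounds before 400 uM 4-methylumbelliferyl substrate; 20 min room temperature at pH 5.0. Fluorescence read after pH 10 stop; AC50 values from Hill-equation fits.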
Potency is read from the fitted curve at half-maximal effect; tags tell the direction and shape of the fitted curve.

Row | Structure (SMILES) | activity change, negative = inhibition | Potency
1 | CC(/C=N/NC(=O)CSc1nc2ccccc2n1C)=C\c1ccco1 | inconclusive: -16% [inhibitor] | 
2 | Cc1cc(NC(=O)c2ccccc2NS(=O)(=O)c2c(C)c(C)cc(C)c2C)no1 |  | inconclusive [activator, single point]
3 | O=[N+]([O-])c1ccc(N/N=C/c2cccc(O)c2O)c(S(=O)(=O)N2CCOCC2)c1 | inconclusive: 6.96% [activator] | 
4 | COc1c(C)cc(Br)cc1C(=O)NC(=S)Nc1ccc(Cl)c(C(=O)O)c1 |  | inconclusive [inhibitor, single point]
5 | O=c1ccc2cc(O)c(O)cc2o1 |  | inconclusive [activator, partial curve]
6 | CCOC(=O)c1cc2c(=O)n3ccccc3nc2n(Cc2ccco2)c1=NC(=O)c1ccc(OC)cc1 |  | inconclusive [activator, partial curve]
7 | COc1ccc(NC(=O)/C=C/c2ccc(OC)c(OC)c2)cn1 |  | inconclusive [inhibitor, single point]
8 | O=c1cc(CN2CCC3(CC2)OCCO3)c2c(ccc3ccccc32)o1 |  | inconclusive [inhibitor, partial curve]
9 | O=C(NCCCN1CCCC1=O)c1cc(NS(=O)(=O)c2ccc(F)cc2)cc(NS(=O)(=O)c2ccc(F)cc2)c1 |  | inconclusive [inhibitor, partial curve]
10 | Cc1c(N/C=C(\Cl)C(=O)C(F)(F)F)c(=O)n(-c2ccccc2)n1C | inactive: -6.43% | 
11 | CC(C)(C)c1nnc(N/N=C/c2ccccc2O)n(N)c1=O |  | inconclusive [inhibitor, single point]
12 | Cc1ccc(-c2cc(C(=O)Nc3ccc(S(=O)(=O)Nc4nc(C)cc(C)n4)cc3)c3ccccc3n2)cc1 |  | inconclusive [inhibitor, single point]
13 | O=C(c1cccnc1)N1CCC(Oc2ccc(C(=O)N3CCCCO3)cc2)CC1 | inconclusive: 17.7% [activator] | 
14 | CCCCCC(=O)N/N=C/c1ccc(N(C)C)cc1 |  | inconclusive [activator, partial curve]
15 | CCOc1cc(/C=N/O)ccc1OS(=O)(=O)c1ccc(C)cc1 |  | inconclusive [inhibitor, single point]
16 | Cc1nc(NS(=O)(=O)c2ccc(Br)cc2)c2c3c(sc2n1)CCC3 |  | inconclusive [inhibitor, full curve]
17 | O=C1N(c2ccccc2)C2CS(=O)(=O)CC2N1c1ccc(Cl)c(Cl)c1 (configuration not stated) |  | inconclusive [inhibitor, full curve]

— PubChem BioAssay AID1466 (National Center for Advancing Translational Sciences (NCATS), 2008)
